Results taken from the BET-seq Pho4 binding data (Le et al. 2018).
This is one part of the list. The energies were worked out here from pooled read counts, against the library average; single values are noisy.

Each sequence was assayed against T1, Pho4 (S. cerevisiae) (UniProt P07270) (assay: relative binding free energy (BET-seq); higher = weaker binding). Details: reference: library average.
T1 sequence: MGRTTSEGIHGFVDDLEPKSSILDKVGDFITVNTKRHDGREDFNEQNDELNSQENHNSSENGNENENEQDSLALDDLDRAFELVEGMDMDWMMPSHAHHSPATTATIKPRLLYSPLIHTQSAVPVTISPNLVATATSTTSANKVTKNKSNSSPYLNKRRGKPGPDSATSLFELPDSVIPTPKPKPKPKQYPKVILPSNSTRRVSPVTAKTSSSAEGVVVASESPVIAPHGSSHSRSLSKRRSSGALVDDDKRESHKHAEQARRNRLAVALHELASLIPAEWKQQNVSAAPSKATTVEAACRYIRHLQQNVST

Sequence	relative binding free energy [kcal/mol]
AACCGCACGTGGGGGT	-0.22
ATGGTCACGTGCATCG	0.11
GGACGCACGTGTGGTT	-0.14
GTAGACACGTGGGGCT	-0.02
ACATACACGTGGGGGT	-0.05
TTAAACACGTGTGGAG	0.06
ATCGGCACGTGAGGAG	0.05
GAGGTCACGTGGTGTT	0.18
GTATGCACGTGTGATT	0.04
TGGCCCACGTGGTGGT	-0.2
TGGTCCACGTGAGTAG	0.16
TGGAACACGTGGCTTT	-0.13
AGGAGCACGTGCGCTT	-0.01
AGTTGCACGTGTGGTA	0.07
TGTATCACGTGTGTAG	0.1
TGTGACACGTGGTACG	-0.16
TGCATCACGTGTGGAG	0.09
TTCTGCACGTGGTATA	-0.17
TTGGTCACGTGCTGAT	0.11
ATTACCACGTGGTGTG	-0.19
GAAATCACGTGCGTGG	0.17
AGGTGCACGTGAAGCT	0.29
TGTTTCACGTGACGGC	0.47

Sequence	relative binding free energy [kcal/mol]
GGTCCCACGTGTGTTG	0.09
GTTGTCACGTGTGAGA	0.34
TAGTGCACGTGACGGT	0.11
GGACGCACGTGGTTTG	-0.12
GGTGGCACGTGGAAAG	0
TGGGACACGTGGGGAC	-0.01
TGCTGCACGTGTGGTA	-0.06
GATATCACGTGGGTGG	0.01
GTGATCACGTGGGGAT	0.09
CAGGTCACGTGAAGGG	0.27
TCTGGCACGTGGAGAG	-0.14
TGGTACACGTGCAGGA	0.03
AGGAGCACGTGAAGGA	0.18
GTACGCACGTGAGGGC	0.3
TTTAACACGTGGGTCG	-0.12
AGGCGCACGTGAGGCG	0.16
TAATACACGTGGTGGG	0.03
AGTATCACGTGGATGG	0.18
TCGGTCACGTGTTTAG	0.09
GGGGGCACGTGTTCTA	-0.05
ATTAGCACGTGTTGGA	-0.05
CGGTACACGTGTGGAT	0.14
AGATACACGTGAATGG	0.24

Sequence	relative binding free energy [kcal/mol]
TTAGTCACGTGTCTAG	0.13
ACGTTCACGTGGGTGT	0.09
TGTCACACGTGTTAGT	0.01
GGCACCACGTGGCGGG	0.04
CGGGGCACGTGGTATG	-0.22
CTGATCACGTGGTGTG	0.13
AATGTCACGTGATAGG	0.15
AAACGCACGTGGGTGG	-0.36
TTAGGCACGTGTTTCG	0
ATTTTCACGTGTGCGT	0.31
AAGGGCACGTGTAGGG	-0.08
TATGGCACGTGCTAGT	-0.11
GTTGACACGTGATTTG	0.13
TATATCACGTGTATGA	0.19
GGACGCACGTGTGATG	0.01
AGATACACGTGTTATG	-0.09
GCTTTCACGTGTTCGT	0.4
GGGTTCACGTGTGTGT	0.25
AGCTACACGTGGGGGG	-0.01
ATTAACACGTGTGGCA	0.04
AGTGACACGTGTTTTC	0.15
AGACGCACGTGAAGGT	0.4
TGCTTCACGTGAAGTG	0.24

Sequence	relative binding free energy [kcal/mol]
GTTAGCACGTGGGGCG	-0.13
TGAATCACGTGTGGGT	0.27
TGGGCCACGTGATTTT	0.23
AATGTCACGTGGGGAG	0.02
AGTATCACGTGCTGGG	0.06
GTAGACACGTGTTTAG	0.12
GGGTGCACGTGCTGTG	-0.03
GGAAGCACGTGGATGG	0
TAGTTCACGTGAAGTT	0.51
TTATACACGTGTCATT	0
AAAAACACGTGGTTTG	-0.07
AGTAGCACGTGGAAAG	-0.02
CGTTACACGTGAGTTA	0.34
CGATTCACGTGTTGGC	0.34
AAGGACACGTGTTAGT	0.03
TTTGGCACGTGTTTTG	0.06
TAGGTCACGTGTACAG	0.06
TTAATCACGTGCGTAT	0.07
AGGGGCACGTGCTCTG	-0.2
TGTGTCACGTGTTATT	0.06
TCCGTCACGTGGCGGT	0.08
TGTATCACGTGGGGTG	-0.01
AGAATCACGTGTGGTG	0.21

Sequence	relative binding free energy [kcal/mol]
AGATGCACGTGTATGT	-0.06
TGAAGCACGTGGGACG	-0.23
GCACGCACGTGGGAGG	-0.13
TTTCGCACGTGGTGAC	0.15
GTTTGCACGTGATTGT	0.13
ATCGGCACGTGGGACA	0.01
GGGTCCACGTGATGGC	0.22
AAGGTCACGTGTGGGG	0.19
GATTACACGTGTGGCG	0.29
GGTTACACGTGAATGG	0.4
TGTTGCACGTGTTGGC	0.07
CTTATCACGTGGAGGG	0.16
TTTTTCACGTGAGATT	0.41
CGTGGCACGTGTTACA	-0.02
GGTGGCACGTGTGTGA	0.03
GTTGCCACGTGGGTCG	-0.22
TGCGACACGTGATTGT	0.22
CTGGTCACGTGAGGAG	0.3
ATTATCACGTGGGGAC	0.06
TCTGTCACGTGAGAGG	0.23
CAGTTCACGTGATTTG	0.35
ATTGTCACGTGTAAAG	0.05
GCTGGCACGTGGCTTG	-0.16
